# From PubChem BioAssay AID720542 (National Center for Advancing Translational Sciences (NCATS), 2013)
# Among all 360,000 compounds or so, about 740 (0.21%) were called active. Inconclusive results, whose numbers are uncertain, are shown with a selection of clear calls. The call rests on the fitted dose curve; in most records, active means well fitted inhibition curve with a large enough effect; inconclusive means small, poorly fitted or top-dose-only effect; inactive means no such curve, though single readings can be large or run the other way. No potency is given beside an inconclusive call; the fits are too rough.
# System: Plasmodium falciparum AMA1 (3D7) - RON2 peptide interaction
# Test: qHTS for Inhibitors of AMA1-RON; Towards Development of Antimalarial Drug Lead: Primary Screen; further: nearly all actives have a fitted effect of over 45% in size;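 on activity change, negative = inhibition: 0% = vehicle wells and -100% = peptide control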
# Details: AlphaScreen AMA1-biotinylated RON2 peptide binding; activity change, negative = inhibition: at 58.2 µM (top of the series) unless noted
# Method in brief: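 AMA1 (3D7) with his tag at 25 nM final met compounds first, then biotinylated RON2 peptide at 25 nM; detection used donor plus acceptor beads, 10 µg/mL apiece, read by AlphaScreen after 30 min at room temperature.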
# Potency means the concentration at half of the fitted maximal effect; tags describe the fitted curve by direction and shape.
SMILES,Potency,"activity change, negative = inhibition"
CC1CCN(CCCCOc2cccc(Br)c2)CC1,"inconclusive [inhibitor, partial curve]",–
COCCNC(=O)C(c1ccc(C)cc1)N(C(=O)CCC(=O)Nc1ccccn1)c1ccc(F)cc1 (stereo unspecified),inactive,–
COC(=O)c1cc2ccccn2c2c(C(=O)OC)c(C(=O)OC)cc1-2,inactive,–
Cn1ccc2c(N(Cc3ccccc3)Cc3ccccc3)cc3c(c21)C1CCC3O1 (stereo unspecified),"inconclusive [inhibitor, partial curve]",–
CCN1/C(=C2\C(=O)N(C)C(=S)N2c2ccccc2)C=Cc2ccccc21,"inconclusive [inhibitor, single point]",–
O=C(NC(=S)Nc1ccc2c(c1)OCCO2)c1ccccc1,inactive,–
Clc1ccc(CN2CCN(/N=C/c3ccco3)CC2)cc1,"inconclusive [inhibitor, single point]",–
CCn1cc(C(c2ccccc2)C(C(C)=O)[N+](=O)[O-])c2ccccc21 (stereo unspecified),"inconclusive [inhibitor, partial curve]",–
O=C1C2C3C=CC(C4CC34)C2C(=O)N1/N=C/c1ccc(-c2ccc(F)cc2[N+](=O)[O-])o1 (stereo unspecified),"inconclusive [inhibitor, partial curve]",–
COc1ccc(/C(=N\Nc2ccccc2C(=O)O)c2ccccc2)cc1,"inconclusive [inhibitor, single point]",–
CCc1ccc(/C=C2\SC(=S)N(CCCC(=O)N(CCO)c3ccccc3)C2=O)cc1,"inconclusive [inhibitor, single point]",–
CC(=O)c1ccc(N2CCN(C(=O)c3cccc(Oc4ccccc4)c3)CC2)cc1,inactive,–
CN1/C(=C\C(=O)c2cccnc2)Sc2ccccc21,inactive,–
Nc1ccc2ccccc2c1,"inconclusive [inhibitor, single point]",–
CCOC(=O)COc1ccc(S(=O)(=O)Nc2ccc3c(c2)OCO3)cc1,"inconclusive [inhibitor, single point]",–
Cc1ccc(C(=O)N2CCN(c3cccc(C)c3C)CC2)cc1S(=O)(=O)N1CCOCC1,inactive,–
C1=C(c2ccccc2)CCNC1,inactive,–
CCOc1ccccc1NCc1cc(=O)oc2cc(C)ccc12,"inconclusive [inhibitor, partial curve]",–
CCCN(CC1CCCO1)C(=O)CCc1nnc(-c2cc(C)on2)o1 (stereo unspecified),inactive,–
COc1ccc(NC(=O)c2cc3ccc4c5ccccc5[nH]c4c3cc2O)cc1,"inconclusive [inhibitor, partial curve, poor fit]",–
O=C(CN1CC(=O)Oc2ccccc21)OCC(=O)c1ccccc1,"inconclusive [inhibitor, single point]",–
Cc1ccc(C(C(=O)NC2CCCC2)N(Cc2ccc3c(c2)OCO3)C(=O)c2snc(C(N)=O)c2N)cc1 (stereo unspecified),inactive,–
CCOC(=O)C1CCN(C(=O)c2ccc(OC)cc2OC)CC1,inactive,–
Cc1ccc(Nc2c3c(nc4ncnn24)CCC3)cc1,inactive,–
Cc1ccc(Nc2nc(N)nc(CN3CCN(c4ccccc4F)CC3)n2)cc1,"inconclusive [inhibitor, single point]",–
O=C(O)C1CC(=O)n2c(nc3ccccc32)S1 (stereo unspecified),inactive,–

SMILES,Potency,"activity change, negative = inhibition"
CCN(Cc1ccccc1)S(=O)(=O)c1ccc(C(=O)N(CCCN(C)C)c2nc3cc4c(cc3s2)OCCO4)cc1,"inconclusive [inhibitor, single point]",–
CN(C(=O)COC(=O)CSc1ccc([N+](=O)[O-])cc1)c1ccccc1,"inconclusive [inhibitor, partial curve, poor fit]",–
Cc1ccc(F)c(NC(=O)c2ccc(Cn3cc(Cl)cn3)cc2)c1,inactive,–
O=C(Nc1nncs1)c1cccc(S(=O)(=O)N2CCc3ccccc32)c1,inactive,–
CCOc1ccc(C(=O)Nc2ccc(S(=O)(=O)N3C[C@@H]4C[C@@H](C3)c3cccc(=O)n3C4)cc2)cc1,"inconclusive [inhibitor, single point]",–
CC(=O)c1ccc(-c2ccc(C(=O)NC3CCCCCC3)o2)cc1,inactive,–
COCCn1c(C)cc(C(=O)CSc2cc(C)c3ccccc3n2)c1C,"inconclusive [inhibitor, single point]",–
Cc1ccc(C2(C)NC(=O)N(CC(=O)NC(=O)NCCC(C)C)C2=O)cc1 (stereo unspecified),inactive,–
CCOC(=O)c1ccc(N=Cc2c(O)c3ccccc3oc2=O)cc1,inactive,–
CCOc1cc2c(cc1OCC)-n1cccc1C(c1ccc(C)cc1C)NC2 (stereo unspecified),"inconclusive [inhibitor, single point]",–
CCn1c2ccccc2c2cc(CN3CCN(C(=O)c4ccco4)CC3)ccc21,"inconclusive [inhibitor, single point]",–
O=C(NCc1ccco1)c1ccc(-c2cccc(Cl)c2)o1,inactive,–
N=C1/C(=C/c2ccc(OCc3ccccc3)cc2)C(=O)N=C2SC(CC(=O)N3CCOCC3)=NN12,inactive,–
COc1ccc(OC)c(NC(=S)N2CCN(Cc3ccccc3)CC2)c1,inactive,–
CC(C)N1CCc2c(sc(NC(=O)c3ccc(C(=O)c4ccccc4)cc3)c2C(N)=O)C1,"inconclusive [inhibitor, full curve]",–
CCC(=O)N(CCC(c1ccccc1)c1ccco1)Cc1cccs1 (stereo unspecified),"inconclusive [inhibitor, single point]",–
CCn1c(C(=O)NC(C)c2ccc3c(c2)OCCO3)cc2sccc21 (stereo unspecified),"inconclusive [inhibitor, partial curve]",–
NS(=O)(=O)c1ccc(NC(=S)NC(=O)/C=C/c2ccco2)cc1,"inconclusive [inhibitor, partial curve]",–
O=C(CCCOc1ccc(Cl)cc1Cl)Nc1ccccc1C(=O)O,"inconclusive [inhibitor, single point]",–
N#Cc1ccc(COC(=O)c2ccc(N3CCCC3)c([N+](=O)[O-])c2)cc1,"inconclusive [inhibitor, partial curve]",–
c1ccc(COC2COC3C(OCc4ccccc4)COC23)cc1 (stereo unspecified),inactive,–
CSc1ccc(/C=N/Nc2nc(C)cc(C)n2)cc1,inactive,–
CC(=O)c1cccc(NC(=O)N2CCCc3ccccc32)c1,inactive,–
Cc1nc(NCc2ccco2)c2c(C)c(C)sc2n1,"inconclusive [inhibitor, single point]",–
CCN(CC)C(=O)CC(c1ccc(N(C)C)cc1)c1c(OC)cc(OC)c2c(-c3ccccc3)cc(=O)oc12 (stereo unspecified),active: 22.4 µM,–
Cc1csc(NC(=O)C2C3C=CC(C3)C2C(=O)O)n1 (stereo unspecified),–,inconclusive: -4.49% [inhibitor]

SMILES,Potency,"activity change, negative = inhibition"
COc1ccc(C(=O)CCc2ccc(OC)c(OC)c2)cc1,inactive,–
COc1cccc(N2CCN(C(=O)c3ccc(CSc4nc5ccncc5[nH]4)cc3)CC2)c1,"inconclusive [inhibitor, single point]",–
Nc1ccccc1Nc1cc(-c2cccc(Cl)c2)nn1-c1ccccc1,"inconclusive [inhibitor, partial curve]",–
COc1cc(NC(=O)C2CCCC2)c(OC)cc1Cl,inactive,–
CN(N=Nc1ccc([N+](=O)[O-])cc1)c1ccccc1,"inconclusive [inhibitor, single point]",–
Cc1nc(-c2ccc([N+](=O)[O-])cc2)c(-c2ccccc2)o1,"inconclusive [inhibitor, single point]",–
CN(C)CCCN(C(=O)/C=C/c1cccs1)c1nc2c(F)cccc2s1,"inconclusive [inhibitor, full curve, poor fit]",–
CC(CCN(C)C)OC(=O)c1ccc(C(C)c2ccccc2)o1 (stereo unspecified),inactive,–
O=[N+]([O-])c1ccccc1CN1CCN(Cc2ccc3ccccc3c2)CC1,"inconclusive [inhibitor, single point]",–
CCOC(=O)c1[nH]c(C)c(CC(C)C)c1C,inactive,–
COc1cccc2sc(N3CCN(C(=O)C4COc5ccccc5O4)CC3)nc12 (stereo unspecified),"inconclusive [inhibitor, single point]",–
O=C(C#Cc1ccccc1)NCc1ccccc1F,inactive,–
Cc1ccc(Nc2nc(COC(=O)C3CC3)cs2)cc1,inactive,–
O=C1C=CC(=O)c2c(O)c(CO)c(CO)c(O)c21,"inconclusive [inhibitor, full curve]",–
CCOC(=O)c1oc2ccccc2c1NC(=O)Cc1cccs1,inactive,–
CCOC(=O)N/N=C(\C)c1cccs1,inactive,–
Clc1cccc(Cc2c(-c3ccco3)nc3c4ccccc4ccn23)c1,"inconclusive [inhibitor, single point]",–
COc1cc2nc(N(CCCN(C)C)C(=O)c3ccc(S(=O)(=O)N4CCc5ccccc54)cc3)sc2cc1OC,"inconclusive [inhibitor, partial curve, poor fit]",–
CCCNC(=O)c1ccc2c(=O)c(O)c(C)[nH]c2c1,inactive,–
CCc1nc2ccc(C(=O)N3CCN(c4ccccc4)CC3)cn2c1N(C)CCCc1ccccc1,"inconclusive [inhibitor, single point]",–
CCOc1cccc(C(=O)NC(=S)Nc2ccc(N3CCN(CC)CC3)cc2)c1,"inconclusive [inhibitor, partial curve]",–
Cc1cc(=O)n(CC(=O)O)c2ccccc12,inactive,–
O=c1cc(O)c2sc(Nc3ccc(F)cc3)nc2[nH]1,inactive,–
N#CCCN1CCCc2cc(N=Nc3ccc(C(F)(F)F)cc3)ccc21,"inconclusive [inhibitor, single point]",–
